Some of the results follow.
tested on: T1, Caupolican (Caup) homeodomain DNA-binding domain; assay: PBM E-score (8-mer, recovered from the published 9-mer minima) (E-score (dimensionless, -0.5 to 0.5)); Drosophila protein; higher = stronger relative binding preference, active = 0.31 or more
T1 sequence: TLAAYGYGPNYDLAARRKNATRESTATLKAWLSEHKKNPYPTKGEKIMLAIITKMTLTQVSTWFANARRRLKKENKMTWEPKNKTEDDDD
Summary of the method: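 Caup's homeodomain DNA-binding domain (residues 214-303) was produced by in vitro transcription and translation and applied at 100 nM to custom-designed protein binding microarrays. Each value is an enrichment score giving relative binding preference for a short DNA word; higher means stronger. Published 9-mer scores were the minimum of their two constituent 8-mer scores, and the 8-mer values were recovered from those minima. A cutoff of 0.31 marks candidate binding sequences.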

PBM E-score, ≥ 0.0764:
ACGTGAAA

PBM E-score, ≥ 0.101:
ATCGGTTA

PBM E-score, active:
TAGTACAA 0.38
ATGTAGTC 0.331
ACGTGTAA ≥ 0.394
TACACGTA 0.361

PBM E-score, ≥ 0.0838:
ATTGTGGA

PBM E-score, ≥ 0.287:
TCGGTACA

PBM E-score, inactive:
AGAAACCA 0.0846
ATCCTAGC 0.0256
AGATCGCC -0.108
CATAGGAC 0.102
CAGAACGA 0.112
CCCTGGCC -0.3
CTTTATTC 0.0345
GAAGAAAA -0.00673
GCCACCGC -0.316
CACCCCTC -0.0967
AGAAGAGG -0.176
ATAACTAC 0.249
ACCCGTGC -0.0824
CATAGTCA 0.134
CAAGATTG 0.166
CCTGCAGG -0.215
GTTTATAA 0.117
CGACCTAA -0.00057
CGAGTCTC -0.0882
GGATGGGA -0.0347
CATGGTAC 0.193
GCTTGGTA 0.112
AGGTCCTA -0.0805
CGCACTTA -0.0449
ACGTCAGG -0.0595
CATCGGGG -0.142
AAAGGCTG -0.0527
AAGAACGA 0.0536
CTGATCAC 0.0437
CACTTCTA 0.0585
CCCGTGAG -0.124
CCCGCAGG -0.28
AAAAGCCA -0.0723
GCTTTGAA -0.0195
TGATCCCA -0.0801
CACTACAG 0.114
CGGAGTAC -0.0348
GGTAACCA 0.0779
GACGGGGA -0.227
CGCGGGCC -0.272
CCATTCAG -0.00284
CAGATGCC -0.121
ACGTGAAC -0.0154
CGTGGAAC -0.0517
ACAGATAA 0.199
AATCAATC 0.156
CTCCGTTA -0.0366
GATGTTAA 0.28
CCCGAATC -0.201
GTATGCGA 0.06
TCGCCTCA -0.146
AGCGTACC -0.17
ATTATTTA 0.189
ATATTCGA 0.0446
CCTTACTA 0.0798
ACACTGTA 0.205
TCCCAGAA -0.138
TCTCTCCA -0.109
ATCCTCCC -0.184
CATTACCA 0.119
AGGCGGGG -0.167
CAAGGACC 0.00781
AAGCGCAG -0.114
CCGTGCAC 0.00622
AAATGCCA -0.0499
AGAAAGTA 0.0641
GGCGCGAC -0.185
TAGGGTAA 0.091
CGCCATTC -0.132
ACCCACTA 0.0164
AGTGCCCC -0.219
CATCGAGG -0.00272
CCTCCCCC -0.369
GGTCATAA 0.0617
ACGTCAAG -0.0382
ACACAGGA 0.201
GCATGAGC -0.0712
CGTCCAGC -0.094
ATTGTGGC -0.0911
AAACCTCA 0.0488
AAACGACC -0.0413
GAGGACGC -0.0949
GAATGAGC 0.0736
GAGCTGGC -0.133
CCGTAGTC -0.148
CACGGACC -0.0277
GTCCGATA 0.0652
TGTCGCAA 0.154
AACCCTAG 0.0534
ATATCCGA 0.134
AGTATCCG 0.0154
ACGGAGTC -0.0831
CCCCGGTA -0.0789
CACCCCCC -0.261
AAAACAGC 0.148
TCGAGACA 0.165
CCGGGGCC -0.294
CCCCCCCC -0.378
CAAACTTC 0.0813
CCCTGGGC -0.316
TCGACTAA 0.114
CCGTGTCA 0.278
CTGCTACA 0.182
CGCGGAGA -0.112
AAATGACA 0.267
ATTCCTGA 0.0483
CAAGGAGC -0.0683
CCCACAAG -0.101
AAGGATCG -0.00636
AAATTTTC -0.0413
CCTGTTCA 0.15
ACTTGTGG 0.0442
CACTTAGC -0.0589
ACCTATCC -0.0326
CATGACTA 0.198
AATTAATG 0.18
CTAGTCTC 0.0185
CAACGCAC -0.0213
ATAATAGC 0.0678
CGTCATCA 0.0738
CCCTACAC 0.0585
AATGAGGT 0.0755
CTGTGAGC -0.0353
ATTTCTGG 0.0733
ATCTCGAA -0.0205
GGAGGATA -0.0589
CTACGCTA -0.0834
AACGTCTC 0.0592
AATAGTCA 0.0868
AGCAGGCC -0.129
AATCATGG 0.0994
TGAGGGAA -0.0926
ATTTAAGG -0.11
ATCCTATG 0.117
ATCTCCGG -0.0699
ATTAATAA 0.176
GCTCCAAA -0.0959
ACGACCTA 0.044
AGGGCTTA -0.171
ACCTTCCA -0.0675
AGCGTGAG -0.108
ATGCAGTG 0.015
TAACAAGA 0.298
AATAACCC 0.0697
CGGACTCA -0.0355
AATGTGGT 0.109
GATATGAC 0.0792
GGACTCCC -0.16
AAATACAG 0.132
TCTAGAAA 0.0687
TAATACGA 0.157
CAATCCCC -0.092
AGACCTAA -0.0435
AAGTTAAG -0.00076
ATTAGTGG 0.131
CTCTATAC 0.00278
AGCGCTAA -0.0719
CATGCCGA 0.0553
AGTTCAAC 0.0449
CATACGAC 0.09
CTCCAACA 0.0786
ATACTCAA 0.139
CATTAGGC -0.0787
AGGGGGCG -0.287
CAACTGTG 0.0761
AGTCTACA 0.125
GTTTCTGA -0.00907
TGCTCGAA 0.0393
CGCGAGCA -0.0924
ATAGAATG 0.156
CCCTAAAC -0.0887
CGGACCAA 0.0071
GGGAGTTA -0.0818
CGGGTCTC -0.113
AACCAGAT 0.153
ACCGTAAC -0.0155
AGACTAAC -0.0237
AAGCCCCC -0.36
ATTTCTGA 0.0425
TACCACCA 0.0696
GCATGGGC -0.179
CTAAACGC -0.0672
CCCTCATA -0.0357
AGTTTTCG 0.0178
GGCCTGCA -0.239
ATACTTAG 0.0483
GGGGCAAC -0.0774
ATGGACTC -0.0423
ATTGTAAA 0.246
ATTCAACG 0.031
ACCTATAC 0.12
CTGGGTCA -0.12
AAATAAAT 0.109
CATGTGCG 0.108
GAGCTGTA 0.079
GGCGGCAC -0.24
CCCTGTTA 0.126
AGTGGTGG -0.0979
CGTGCCAA -0.115
AGGGGCTA -0.162
TCACGCAA 0.0565
CGTCACTC -0.181
GATAGTAC 0.172
CCTACCCC -0.298
AACAGTGG 0.0316
ATCTTTCG -0.0796
CCCCGGAA -0.169
CAACCTGG 0.0642
ACATAAAA 0.221
AAATCAGA 0.161
CTGCCGAC -0.164
CCCCCACA -0.245

PBM E-score, ≥ 0.164:
ATCATGAT

PBM E-score, ≥ 0.00079:
AAGGCACA

PBM E-score, ≥ 0.162:
AACGAGCA

PBM E-score, ≥ 0.0674:
ACCGTTTA

Reference: the supplement of paper PMC3724861
